According to article PMC9911399, “Two distinct binding modes provide the RNA-binding protein RbFox with extraordinary sequence specificity”:
Changes are numbered by the printed parent chain; changes in the protein carry UniProt numbers. This is one part of the list.

T1: RBFOX1 RRM (Homo sapiens, UniProt Q9NWB1 109-208)
T1 sequence: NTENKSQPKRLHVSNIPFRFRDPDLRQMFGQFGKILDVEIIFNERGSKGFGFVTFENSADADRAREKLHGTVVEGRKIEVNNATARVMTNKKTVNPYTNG

B1: AAGUAAG (DNA:RNA)
RNA: GGGAGACCGGAAUUCAGAUUGUCCAAGUAAGUUAAAUCCCGUCGUAGCCACCA
DNA 1: CAATCTGAATTCCGGTCTCCC
DNA 2: TGGTGGCTACGACGGGATT
B2: UUUACAG (DNA:RNA)
RNA: B1 RNA with A25U, A26U, G27U, U28A, A29C
DNA 1: CAATCTGAATTCCGGTCTCCC
DNA 2: TGGTGGCTACGACGGGATT
B3: CGAUUGG (DNA:RNA)
RNA: B1 RNA with A25C, A26G, G27A, A29U, A30G
DNA 1: CAATCTGAATTCCGGTCTCCC
DNA 2: TGGTGGCTACGACGGGATT
B4: AUAAUUU (DNA:RNA)
RNA: B1 RNA with A26U, G27A, U28A, A29U, A30U, G31U
DNA 1: CAATCTGAATTCCGGTCTCCC
DNA 2: TGGTGGCTACGACGGGATT
B5: AAAAAUU (DNA:RNA)
RNA: B1 RNA with G27A, U28A, A30U, G31U
DNA 1: CAATCTGAATTCCGGTCTCCC
DNA 2: TGGTGGCTACGACGGGATT
B6: UCCGGGC (DNA:RNA)
RNA: GGGAGACCGGAAUUCAGAUUGUCCUCCGGGCUUAAAUCCCGUCGUAGCCACCA
DNA 1: CAATCTGAATTCCGGTCTCCC
DNA 2: TGGTGGCTACGACGGGATT
B7: UUAGAGU (DNA:RNA)
RNA: B6 RNA with C26U, C27A, G29A, C31U
DNA 1: CAATCTGAATTCCGGTCTCCC
DNA 2: TGGTGGCTACGACGGGATT
B8: UUGGUGA (DNA:RNA)
RNA: B6 RNA with C26U, C27G, G29U, C31A
DNA 1: CAATCTGAATTCCGGTCTCCC
DNA 2: TGGTGGCTACGACGGGATT
B9: CGUGUCC (DNA:RNA)
RNA: B6 RNA with U25C, C26G, C27U, G29U, G30C
DNA 1: CAATCTGAATTCCGGTCTCCC
DNA 2: TGGTGGCTACGACGGGATT

molecular target: T1, RBFOX1 RRM; experiment: EMSA; HiTS-Eq, 1 nM pool, 10 min; buffer printed only for the single-RNA assays: 10 mM Tris pH 7.5, 150 mM NaCl, 3.4 mM EDTA, 0.001% NP-40, 30 C; settings: tags: His6 N-terminal (pET28a); label: 5' 32P
Outline: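 Relative association constants, normalised to the cognate motif, were derived by comparing read counts of each RNA species with those of the control reaction. The RNA sequenced was the free fraction, separated by 8% native PAGE after a 10 min equilibration in 50 µL of 1 nM 5′-radiolabelled RNA (7 randomized nucleotides) with increasing concentrations of purified wild-type or mutant RbFox RRM.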

Row | Binder | binding signal
1 | B1 | 0.00894 KA relative to UGCAUGU
2 | B2 | 0.00641 KA relative to UGCAUGU
3 | B3 | 0.0173 KA relative to UGCAUGU
4 | B4 | 0.00313 KA relative to UGCAUGU
5 | B5 | 0.000504 KA relative to UGCAUGU
6 | B6 | 0.00512 KA relative to UGCAUGU
7 | B7 | 0.0129 KA relative to UGCAUGU
8 | B8 | 0.0158 KA relative to UGCAUGU
9 | B9 | 0.00858 KA relative to UGCAUGU
